Results reported in article PMC4336329 (PLoS ONE, 2015).
Among all 310,000 compounds or so, about 2,200 (0.71%) showed an effect of 50% or more. Effects have a minus sign here. The list shows a part of the results.

Each molecule was assayed against human ether-à-go-go-related gene (hERG) potassium channel (human, UniProt Q12809) (assay: primary screen, population patch clamp on CHO cells stably expressing hERG).
human ether-à-go-go-related gene (hERG) potassium channel, sequence (Q12809 whole entry, looked up): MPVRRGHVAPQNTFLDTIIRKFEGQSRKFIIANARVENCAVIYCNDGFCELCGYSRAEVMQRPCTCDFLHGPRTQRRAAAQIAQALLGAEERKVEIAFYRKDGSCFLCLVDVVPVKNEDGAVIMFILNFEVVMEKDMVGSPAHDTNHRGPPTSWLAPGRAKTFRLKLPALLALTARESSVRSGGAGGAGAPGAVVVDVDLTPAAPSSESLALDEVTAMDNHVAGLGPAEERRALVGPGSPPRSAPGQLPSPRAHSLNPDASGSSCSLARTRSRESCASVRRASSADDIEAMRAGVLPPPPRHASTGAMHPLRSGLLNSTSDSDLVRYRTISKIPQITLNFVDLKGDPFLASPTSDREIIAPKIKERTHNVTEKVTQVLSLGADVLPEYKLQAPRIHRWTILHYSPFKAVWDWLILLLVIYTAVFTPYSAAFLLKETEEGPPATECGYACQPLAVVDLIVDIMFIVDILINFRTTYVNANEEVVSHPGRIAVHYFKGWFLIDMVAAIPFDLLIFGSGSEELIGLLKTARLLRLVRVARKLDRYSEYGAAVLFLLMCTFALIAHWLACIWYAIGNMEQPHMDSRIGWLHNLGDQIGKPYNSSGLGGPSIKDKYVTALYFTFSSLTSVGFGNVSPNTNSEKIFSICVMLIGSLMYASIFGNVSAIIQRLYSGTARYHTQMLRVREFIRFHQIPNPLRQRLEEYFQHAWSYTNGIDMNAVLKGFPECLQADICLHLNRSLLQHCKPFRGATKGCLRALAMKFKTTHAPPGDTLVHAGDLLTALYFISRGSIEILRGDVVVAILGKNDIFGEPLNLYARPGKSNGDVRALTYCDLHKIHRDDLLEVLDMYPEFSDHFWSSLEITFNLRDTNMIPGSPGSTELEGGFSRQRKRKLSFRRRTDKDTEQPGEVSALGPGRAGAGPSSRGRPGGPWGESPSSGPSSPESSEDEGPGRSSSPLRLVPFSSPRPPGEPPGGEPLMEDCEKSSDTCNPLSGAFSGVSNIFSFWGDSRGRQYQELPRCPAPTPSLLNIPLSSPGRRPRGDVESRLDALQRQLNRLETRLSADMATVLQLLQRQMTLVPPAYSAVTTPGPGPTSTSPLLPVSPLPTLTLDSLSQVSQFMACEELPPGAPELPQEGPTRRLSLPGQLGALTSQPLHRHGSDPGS

SMILES	hERG current change (%, negative = inhibition) at 1uM [%]
N#Cc1c(-c2ccccc2)nc(-c2ccncc2)[nH]c1=O	-8.61
COc1ccccc1-c1cc(C(F)(F)F)nc(NCc2ccco2)n1	7.9
CC(=O)Nc1ccc(S(=O)(=O)Nc2nc(-c3ccc(C(C)(C)C)cc3)cs2)cc1	-3.26
O=C(NCCc1ccccc1)C1CCN(S(=O)(=O)c2cccnc2)CC1	12.3
C/C(Cn1nc([N+](=O)[O-])cc1C)=N\NC(=O)COc1ccccc1[N+](=O)[O-]	7.38
COc1cccc(-c2c(C(=O)N/N=C/c3ccsc3)nnn2-c2nonc2N)c1	19.4
CC1(C)CC(=O)C=C(Nc2ccc(O)c(C(=O)O)c2)C1	17.2
O=C(COC(=O)/C=C/c1ccccc1Cl)NC(=O)NCc1ccccc1	13.4
CCn1c(CNc2ccc(F)cc2)nnc1SCC(=O)OC1CCCCC1	-20.2
CC(C)CN(C(=O)CCNC(=O)c1ccc(Cl)cc1)c1c(N)n(CC(C)C)c(=O)[nH]c1=O	7.65
O=c1c2ccccc2nc(CN2CCOCC2)n1-c1ccccc1F	11.8
O=C(CC(c1ccccc1)c1cc(Br)ccc1O)N1CCCCC1 (stereo not shown)	11.7
CCCOc1ccc(N2C(=O)CC(N3CCN(c4nc5ccccc5s4)CC3)C2=O)cc1 (stereo not shown)	9.08
CCC(=O)Nc1nc2ccc(S(C)(=O)=O)cc2s1	5.06
CCn1c(SCC(=O)Nc2cc(S(=O)(=O)N3CCOCC3)ccc2OC)nnc1-c1ccncc1	13.7
N/C(CC(=O)Nc1cc(C(F)(F)F)ccc1Cl)=N\O	3.11
CCc1c(C)c2ccc(OC(C)C(=O)NC(Cc3c[nH]c4ccc(O)cc34)C(=O)O)c(C)c2oc1=O (stereo not shown)	9.05
CC1CCCCN1C(=O)COC(=O)C1CCN(S(=O)(=O)c2c(Cl)cccc2Cl)CC1 (stereo not shown)	-21
CCCCC(=O)N1C/C=C\[C@H](c2ccc(OC)cc2)N(Cc2ccc(F)cc2)C(=O)[C@@H]1C	7.61
Cc1ccc2[nH]c(=O)c(CN(CC3CCCO3)C(=S)Nc3ccccc3)cc2c1 (stereo not shown)	9.42
CCc1c(C)sc(NC(=O)/C=C/C(=O)O)c1C(N)=O	16.2
CC(C)CCNC(=O)c1cc(-c2ccncc2)nc2ccc(S(=O)(=O)N3CCOCC3)cc12	9.43

SMILES	hERG current change (%, negative = inhibition) at 1uM [%]
Cc1c(C)c2c(OCC(=O)N3CCC(C(=O)O)CC3)cc3c(c2oc1=O)CCC(C)(C)O3	-0.492
O=C(NNC(=S)NCc1ccc(Cl)cc1)c1cccnc1	8.09
Cc1cc(C)c(C(=O)N2CCCC(Nc3ccc(F)cc3)C2)o1 (stereo not shown)	8.9
C=CCOc1cccc(C2c3c(oc4ccccc4c3=O)C(=O)N2c2ccccn2)c1 (stereo not shown)	4.17
O=C(CNS(=O)(=O)c1cccc2nsnc12)NCCc1ccccc1	17.3
CN(C)C(CNC(=O)c1ccc(NS(=O)(=O)c2ccc(F)c(F)c2)cc1)c1ccccc1 (stereo not shown)	8.93
O=C(CSc1nnc(-c2ccco2)n1-c1ccccc1)NCC1CCCO1 (stereo not shown)	8.96
COc1ccc(/C=C/C(=O)NCC(=O)N/N=C(\C)Cc2ccccc2)cc1	13
Cc1cccc(OCC(=O)NCC(C)(C)N2CCOCC2)c1	7.14
COc1cc(CNCCN2CCOCC2)ccc1OCc1ccc(Cl)cc1.Cl	-16.2
COC(=O)Cn1c(C(F)(F)F)nc2ccccc21	17
COc1cccc(NC(=O)CN(C)S(=O)(=O)c2ccc3c(c2)n(C)c(=O)c(=O)n3C)c1	6.85
O=C(c1ccc(Br)o1)N1N=C(c2ccc(Cl)cc2)CC1c1ccco1 (stereo not shown)	10
CC(=O)N1CCN(C(=O)CSc2cc(C)c(Br)cc2C)CC1	13.1
CCN(Cc1ccncc1)Cc1ccc(OC)c(OC)c1.O=C(O)C(=O)O	12.9
O=C(O)c1ccc(COc2ccccc2/C=C2\NC(=O)N(Cc3ccccc3)C2=O)cc1	8.41
Cc1cc2nc(C)n(CCCNC(=O)Nc3ccc(C#N)cc3)c2cc1C	-18.9
O=C(COc1ccc(S(=O)(=O)N2CCCC2)cc1Cl)NCc1ccc2c(c1)OCO2	-2.61
C/C(=N\Nc1cc(-c2ccccc2)nc(-c2ccccc2)n1)c1ccc(O)c(C)c1	4.39
C=CCn1cn[nH]c1=S	4.74
CCOC(=O)C1=C(O)/C(=C\c2cccc(OC)c2)N=C1C	9.88
